This is an account of results in PubChem BioAssay AID463173 (ICCB-Longwood Screening Facility, Harvard Medical School, 2010).

In all, about 52,000 compounds went through this assay and about 1,700 (3.3%) were called active. Rule as the data show it: active = survival mostly below about 52% (no sharp cut-off); inactive = mostly above about 56%. The list shows a part of the results.

In this assay the test system is Wild type. The assay is described as follows: S. aureus survival, RN4220 and DeltatarO strains – OD600, teichoic acid synthesis inhibitors, primary screen (AID 463173). The note with it: S. aureus RN4220 wild type/DeltatarO growth, OD600, 18 h, stronger effect = lower value, screened at 18.75 µg/mL (by protocol).
For the compound `CCn1c(Cc2ccccc2)nnc1SCC(=O)Nc1ccccc1`, the survival is inactive: 94%.

For `Cc1ccc(CCNc2nc3c(S(=O)(=O)c4ccc(C)cc4)nnn3c3ccsc23)cc1`, the survival is inactive: 101%.

For `CC(C)c1ccc(NC(=O)c2ccc(NC(=O)CCS(=O)(=O)c3cccs3)cc2)cc1`, the survival is inactive: 81%.

Turning to `Cc1ccc(-n2ncc3c(NCCCc4ccccc4)ncnc32)cc1C`, the survival was inactive: 63%.

`CC1(C)CC(=NNC(=O)c2n[nH]c3c2CCC3)CC(C)(C)N1`: the survival is inactive: 102%.

`COc1cc(CNC(=O)c2cc3n(n2)CCCN(Cc2ccc(C)cc2)C3=O)cc(OC)c1OC`: the survival was inactive: 49%.

`Cc1c(NC(=O)c2sc3c([N+](=O)[O-])cccc3c2Cl)cccc1-c1nc2ccccc2o1`: the survival is inactive: 73%.

As to `Cc1ccc(-c2c3c(=O)n(C)c(=O)n(C)c3c3c(C(F)(F)F)nc4ccccc4n23)cc1`, the survival was inactive: 72%.

For `CCOC(=O)c1[nH]c(C)c(CCC(=O)Nc2ccc(N(CC)CC)cc2C)c1C`, the survival is inactive: 77%.

Regarding `CCS(=O)(=O)N1CC(=O)N(c2cccc(C)c2C)C(C)(C(=O)NC2CCCCC2)C1` (stereo not given), the survival was inactive: 89%.

As for `CCc1ccc(CNC(=O)CCN2C(=O)COc3ccccc32)cc1`, the survival is inactive: 87%.

Turning to `Cc1cc(C)cc(NC(=O)Cn2nnc(C(=O)Nc3cc(C)cc(C)c3)c2N)c1`, the survival was inactive: 98%.

As for `CC(C)CCNC(=O)c1cc2sccc2n1Cc1ccc(F)cc1`, the survival is inactive: 124%.

Consider `Cc1nc(-c2ccc(F)cc2)sc1CCNC(=O)c1ccco1`, for which the survival was inactive: 136%.

As for `CSc1ccc(CCNC(=O)C(C)n2c(C)c3cnn(-c4ccccc4)c(=O)c3c2C)cc1` (stereo not given), the survival was inactive: 78%.

Turning to `CN1c2ccccc2Oc2nnc(N3CCN(Cc4ccccc4)CC3)cc21`, the survival is inactive: 110%.

Consider `COc1cc(NC(=O)Cn2c(C)cc3ccccc3c2=O)cc(OC)c1OC`, for which the survival was inactive: 68%.

In the case of `COc1cc(OC)cc(C(=O)Nc2c(C(=O)Nc3ccc(F)cc3)oc3ccccc23)c1`, the survival is inactive: 57%.

For the compound `COC(=O)c1cc2oc(C)cc2n1CC(=O)Nc1ccc(C)cc1C`, the survival was inactive: 90%.

Take `CC(=O)Nc1cc(C(=O)NCc2ccc(F)cc2Cl)ccc1Sc1ccc(Cl)cc1`: the survival was inactive: 126%.

On to `O=C(Cn1c(=O)n(Cc2ccccc2)c(=O)c2oc3ccccc3c21)Nc1ccc(Cl)cc1`, for which the survival is inactive: 56%.

In the case of `Cc1ccc(/C=C/c2onc(C)c2S(=O)(=O)N2CCC(C(=O)N3CCOc4ccccc43)CC2)cc1`, the survival was inactive: 119%.

For `COc1ccc(CNC(=O)CCCc2cn(C)c3ccccc23)c(OC)c1`, the survival is inactive: 112%.

On to `O=C(CC(c1ccccc1)c1cc(Br)ccc1O)NCC1(c2ccccc2)CCCC1` (stereo not given), for which the survival was inactive: 63%.

Turning to `CCOC(=O)c1ccc(NC(=O)Cc2ccc(-n3c(CC)nc4cccnc43)cc2)cc1`, the survival was inactive: 86%.

Consider `Oc1ccc(Cl)cc1Nc1nc2ccccc2n2cnnc12`, for which the survival was inactive: 90%.

Turning to `COc1ccccc1N(Cc1cc2cccc(C)c2[nH]c1=O)C(=O)c1cccc(Cl)c1`, the survival was inactive: 109%.

As to `Cc1oc(C2CC2)cc1C(=O)O`, the survival was inactive: 125%.

As for `COc1ccc(CCn2c3c(c(=O)[nH]c2=O)C(NC(=O)c2ccccc2)(C(F)(F)F)C(=O)N3)cc1OC` (stereo not given), the survival was inactive: 72%.

Turning to `O=C(CSc1nc2ccccc2n1Cc1ccccc1)Nc1ccccn1`, the survival was inactive: 113%.

For `CCNC(=O)CC1C(=O)N(c2ccc(C)cc2)C(=O)N1Cc1ccc(C)cc1` (stereo not given), the survival is inactive: 82%.

For the compound `O=C(CCS(=O)(=O)c1ccc2c(c1)NC(=O)CO2)Nc1cccc(C(F)(F)F)c1`, the survival is inactive: 84%.

Turning to `COc1ccc(NC(=O)Cn2nnc(C(=O)NCc3ccccc3Cl)c2N)cc1Cl`, the survival is inactive: 53%.

On to `NC(=O)c1cc(S(=O)(=O)N2CCCCC2)cs1`, for which the survival is inactive: 92%.

Take `CCn1cc(S(=O)(=O)c2cc(C)cc(C)c2)c(=O)c2cc(F)c(N3CCC(C)CC3)cc21`: the survival is inactive: 57%.

Take `Cc1ccc2nc(-c3ccc(C)c(NC(=O)CSc4ccc(Cl)cc4)c3)oc2c1`: the survival is inactive: 73%.

Take `CCOc1ccc(N(C(=O)c2ccc(C)cc2)S(=O)(=O)c2ccc3c(c2)n(C)c(=O)n3C)cc1`: the survival is inactive: 81%.

As for `O=C(NCc1ccc(Cl)cc1)c1cc2ccccc2o1`, the survival was inactive: 85%.

`Cc1ccc(C)n1-c1nnc(N2CCCC(C(=O)NCc3ccc(F)cc3)C2)s1` (stereo not given): the survival is inactive: 88%.

Regarding `Cc1ccc(Cl)cc1N1CCN(C(=O)Cn2cnc3nc4c(cc3c2=O)CCCC4)CC1`, the survival is inactive: 74%.

For `N#C/C(=C\c1cn(CCOc2ccccc2F)c2ccccc12)C(=O)NC1CC1`, the survival is inactive: 107%.

In the case of `Cc1ccc2cccc(NC(=O)c3ccc(-c4cc(Cl)ccc4Cl)o3)c2n1`, the survival was inactive: 71%.

Turning to `O=C(NCc1cccc(Br)c1)c1cccn1-c1nnc(N2CCCCC2)s1`, the survival was inactive: 73%.

For `CCN(CC)C(=O)Cn1c(=O)n(CCCCCC(=O)NCc2ccccc2Cl)c(=O)c2sccc21`, the survival is inactive: 128%.

Consider `COc1ccc(OC)c(NC(=O)c2ccc3c(c2)c(C)c(C)n3Cc2ccc(F)cc2)c1`, for which the survival is inactive: 127%.

For the compound `Cc1ccc(C(=O)Nc2nc3n(n2)C(c2ccccc2)C=C(c2ccccc2)N3)cc1` (stereo not given), the survival is inactive: 61%.

For `Cc1ccc(NC(=O)Cn2c(C)cc(C)c(C#N)c2=O)cc1F`, the survival was inactive: 83%.

With `Cc1cc(C)c(/C=C/c2onc(C)c2S(=O)(=O)N2CCC(C(=O)N3CCN(c4ccc(Cl)cc4)CC3)CC2)c(C)c1`, the survival was inactive: 83%.

For `Cn1nnc(C(O)CNCc2ccc(F)cc2)n1` (stereo not given), the survival is inactive: 106%.

`Cc1ccc(NC(=O)CCNS(=O)(=O)c2cccc3nsnc23)cc1`: the survival was inactive: 64%.

Regarding `CC1CCc2onc(C(=O)N3CCN(c4cccc(C(F)(F)F)c4)CC3)c2C1` (stereo not given), the survival was active: 10%.

On to `COc1ccc(-c2nc3ccccc3s2)cc1NC(=O)c1cc2ccccc2o1`, for which the survival was inactive: 62%.

Regarding `CN(CC(=O)Nc1ccc(F)cc1F)S(=O)(=O)c1ccc(C(=O)N2CCOCC2)s1`, the survival was inactive: 75%.

For the compound `CCOc1ccc(-c2nonc2NC(=O)c2ccc(C)cc2)cc1OCC`, the survival is inactive: 117%.

Consider `CN1CCN(C(c2cccc(Br)c2)c2sc3nc(-c4ccco4)nn3c2O)CC1` (stereo not given), for which the survival was inactive: 82%.

With `CCC(=O)N1CCc2cc(Br)cc(S(=O)(=O)CCC(=O)NCCc3ccccc3Cl)c21`, the survival was inactive: 77%.

Take `CCOc1ccc(-c2nc(SCC(=O)Nc3ccc4c(c3)OCCO4)c(-c3ccc(F)cc3)[nH]2)cc1`: the survival is inactive: 86%.

As to `O=C(Cc1csc2ccccc12)NCc1ccccc1F`, the survival was inactive: 87%.

Consider `Clc1ccc2nc(-c3ccc(Br)o3)c(Nc3ccc4c(c3)OCCO4)n2c1`, for which the survival is inactive: 93%.

With `COc1cccc(OC)c1C(=O)Nc1cccc(-c2nc3cc(C)cc(C)c3o2)c1`, the survival is inactive: 69%.

Take `COc1ccc(NC(=O)c2noc3c2CSc2ccccc2-3)cc1Cl`: the survival was inactive: 95%.

Turning to `CCC(=O)OCCCNc1nc(-c2ccc(Cl)cc2)nc2ccccc12`, the survival was active: -2%.

On to `CC(=O)N1CCCc2cc(S(=O)(=O)N3CCN(c4ccc(F)cc4)CC3)ccc21`, for which the survival was inactive: 79%.

For `CCc1cccc(-n2nnc(-c3nc(-c4cccs4)no3)c2N)c1`, the survival was inactive: 95%.

Regarding `O=C(Cn1nc(Cc2cccnc2)c2ccccc2c1=O)Nc1cccc(C(F)(F)F)c1`, the survival is inactive: 66%.

For the compound `COc1ccc(S(=O)(=O)N(C)Cc2nc(-c3cccc(C)c3)no2)cc1`, the survival is inactive: 74%.

For `O=C(CSc1nc2ccsc2c(=O)n1Cc1ccccc1F)NCc1ccccc1`, the survival was inactive: 124%.

Regarding `O=C1CCC(=O)N1CNC1CCCCC1`, the survival was inactive: 106%.

Regarding `CC(C)OC(=O)C(N)c1ccccc1` (stereo not given), the survival is inactive: 95%.

On to `CCc1ccc(NC(=O)CN2C(=O)C(c3ccccc3)=NC23CCCCCC3)cc1`, for which the survival is inactive: 75%.

For the compound `CCc1ccc(NC(=O)N(Cc2ccc(C)cc2)Cc2cccn2-c2nnc(N3CCCC3=O)s2)cc1`, the survival is inactive: 121%.

Regarding `CCOC(=O)c1ccc(NC(=O)c2cc(=O)c3cc(CC)ccc3o2)cc1`, the survival was inactive: 83%.

As to `CCCCc1ccc(NC(=O)COc2cccc3c(=O)n(C)ccc23)cc1`, the survival is inactive: 83%.

Turning to `CC(OC(=O)Cc1c[nH]c2ccccc12)C(=O)NC1CCCC1` (stereo not given), the survival is inactive: 97%.

Regarding `Cc1ccc2nc(CSc3nnc(NC(=O)COc4ccccc4)s3)cc(=O)n2c1`, the survival was inactive: 63%.

Take `CCOC(=O)c1c(C)c(-c2ccccc2)n(CC(=O)NCCc2ccc(C)cc2)c1C`: the survival is inactive: 87%.

Regarding `Cc1ccc(NC(=O)C2CCCN(c3nnc(-n4c(C)ccc4C)s3)C2)cc1Cl` (stereo not given), the survival was inactive: 78%.

With `COc1cccc(CNC(=O)C(NS(=O)(=O)c2ccc3nc(C)sc3c2)C(C)C)c1` (stereo not given), the survival is inactive: 89%.

Take `Cc1ccc(NC(=O)N2CCC(CN3CCC(C)CC3)CC2)cc1F`: the survival is inactive: 82%.

For the compound `COc1ccc(-c2cc(C(F)(F)F)nc(SCC(=O)NCCc3ccc(OC)c(OC)c3)n2)cc1`, the survival was inactive: 70%.

For `CCCc1cc(=O)n2[nH]c(-c3ccc(C)cc3)nc2n1`, the survival was inactive: 84%.

For the compound `Clc1ccc(CNc2ccccn2)cc1`, the survival is inactive: 98%.

As to `Cc1cccc(NC(=O)CSc2nnc(C)c(=O)[nH]2)c1`, the survival was inactive: 101%.

`Cc1ccc(C(CC(=O)Nc2cc(C)cc(C)c2)N2Cc3ccccc3C2=O)cc1` (stereo not given): the survival was inactive: 78%.

Consider `Cc1ccccc1CN1c2ccccc2-c2nc(SCC(=O)NCCc3ccccc3)ncc2S1(=O)=O`, for which the survival was inactive: 53%.

`CCN(CC)c1ccc(-n2nc3cc(C)c(NC(=O)c4ccccc4F)cc3n2)cc1`: the survival was inactive: 80%.

Take `CCS(=O)(=O)NCC(c1ccco1)N1CCN(c2ccc(OC)cc2)CC1` (stereo not given): the survival was inactive: 119%.

With `Cc1ccccc1CSc1nnc2[nH]c(=O)cc(C)n12`, the survival is inactive: 77%.

For `O=C(Cn1cc(S(=O)(=O)Cc2ccc(F)cc2)c2ccccc21)NCc1ccccc1Cl`, the survival is inactive: 127%.

For the compound `O=C(NCCCc1nc2ccccc2n1Cc1ccc(Cl)cc1)c1ccco1`, the survival was inactive: 120%.
